# The full ranking holds about 33,000 sequences; the median of “E-score (-0.5 to 0.5)” is about -0.012, and the highest 2% start at about 0.27. Some of the results follow.
# Target: T1, Vhr1 (UniProt P40522)
# T1 sequence: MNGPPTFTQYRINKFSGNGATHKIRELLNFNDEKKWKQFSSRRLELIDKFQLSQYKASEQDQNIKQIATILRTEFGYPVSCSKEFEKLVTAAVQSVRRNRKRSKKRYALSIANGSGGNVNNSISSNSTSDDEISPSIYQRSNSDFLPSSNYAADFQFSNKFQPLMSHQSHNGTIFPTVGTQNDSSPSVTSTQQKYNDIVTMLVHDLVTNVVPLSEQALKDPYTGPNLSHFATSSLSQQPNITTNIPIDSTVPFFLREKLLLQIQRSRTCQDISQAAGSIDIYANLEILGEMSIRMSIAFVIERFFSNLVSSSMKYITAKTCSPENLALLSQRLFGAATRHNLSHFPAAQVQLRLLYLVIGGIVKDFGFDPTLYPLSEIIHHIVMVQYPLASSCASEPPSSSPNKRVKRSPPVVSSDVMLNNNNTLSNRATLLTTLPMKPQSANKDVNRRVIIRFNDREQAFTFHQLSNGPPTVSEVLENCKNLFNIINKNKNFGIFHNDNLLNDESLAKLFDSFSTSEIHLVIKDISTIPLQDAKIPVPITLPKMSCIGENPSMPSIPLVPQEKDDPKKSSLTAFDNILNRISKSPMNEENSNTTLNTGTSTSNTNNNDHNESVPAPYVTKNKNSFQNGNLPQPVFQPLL
# Assay: PBM E-score (8-mer binding enrichment) (E-score (-0.5 to 0.5)); higher = stronger / more preferred TF binding; most listed sequences are background and not binding sites
# Conditions: protein concentration: 200 nM; construct: GST-full length
# How it was run: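 Full-length yeast transcription factors or their DNA-binding domains, GST-tagged and expressed with PURExpress, were applied at about 100-200 nM to universal all-10-mer Agilent arrays. These arrays had been made double-stranded by primer extension on fresh or once-stripped slides. Detection used fluorescent anti-GST, normalisation used masliner, and E-scores for ungapped eight-base words pooled with reverse complements came from the Universal PBM Analysis Suite.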
row,Sequence,PBM E-score
1,GACTACAA,0.19
2,ACGAGCGA,0.121
3,GCGCACAA,0.181
4,AAGAATAT,-0.167
5,CTAGTTGC,-0.0715
6,ACAGTGCG,0.0115
7,GAGCGATA,0.0352
8,ACTCCTCG,0.123
9,ATAATCGG,0.222
10,CCTTGTTA,-0.0637
11,ATACCATC,0.124
12,ATCTGATG,-0.00603
13,GCGGAAAC,-0.16
14,AGTCGTTA,0.0407
15,ACGGTGTA,0.0386
16,CGTCCCCC,-0.161
17,AGCAATGC,-0.0267
18,AGTCGATA,0.0206
19,AGATGGGA,-0.242
20,AGACAGAT,0.0485
21,ATAAGGCC,-0.173
22,AACTCTTG,-0.186

row,Sequence,PBM E-score
1,AGTCTGGG,-0.175
2,AACACGGC,-0.0379
3,GTGCGCCA,-0.0413
4,GTAAAAAA,-0.216
5,TGGCTAAA,-0.0906
6,CTCTGCAA,-0.0133
7,ATTCCTAA,0.0904
8,TGTCATAA,-0.0558
9,GCGACTCC,0.414
10,GATCAAAA,-0.128
11,AAACGAAG,-0.18
12,CGACGTTC,-0.23
13,ATCTTAGA,-0.0279
14,ATTATGTA,0.18
15,GTCGAATA,-0.079
16,CATAATGG,0.142
17,ATACGCTA,0.106
18,AGACGGAG,0.0828
19,GATATGAA,-0.101
20,CACAGCGA,0.226
21,CCGTTACC,-0.017
22,ACCGGTTG,-0.0863

row,Sequence,PBM E-score
1,CGTCTCTC,0.0531
2,ACTCTTCA,0.131
3,CACTAATG,0.105
4,ACCAGTCT,0.0104
5,GTGACGCA,-0.126
6,AAGTATAC,0.00355
7,ACGTCTGG,-0.0808
8,ACTCCCCC,-0.107
9,ACTTGAAC,-0.251
10,ACGTCGTG,0.0208
11,CCCCACAG,-0.0855
12,GATCTACC,0.182
13,GTTCCTCA,-0.255
14,AGCAATAG,-0.0838
15,AACATACA,-0.0835
16,CGGCTTAA,0.0419
17,ACCGTGCG,0.00367
18,GTAGGCAA,-0.107
19,AGAGGCTA,-0.108
20,CAGTCATG,0.406
21,CAATACTA,0.0633
22,AACGACTT,-0.216

row,Sequence,PBM E-score
1,CTTAGAAG,-0.251
2,AGCGTATG,-0.0585
3,GACTCCTA,0.384
4,AGCATCGC,-0.0938
5,AAACGTTG,-0.114
6,CCCGGGTA,0.105
7,CATTCTAC,-0.00941
8,CGTAGCTA,-0.0465
9,AATAATCC,-0.00265
10,GTACCTAA,-0.0816
11,ACCCGCCC,0.428
12,AACTCTGG,-0.0375
13,CTGGCTAC,0.0914
14,CGGGCTGC,0.112
15,GATTTATA,0.117
16,AACCCTGC,-0.164
17,ACAATCCT,-0.0131
18,CACATATG,0.137
19,ATGTGTCA,0.143
20,AGTTTCCA,-0.151
